Measurements from patent publication US8232300B2, “Tricyclic amide compound” (Research Foundation Itsuu Laboratory, priority 2007, dated 2012).
At least one read-out could not be matched to a standard name with certainty.

Tested on: human acute promyelocytic leukemia cell strain HL-60
Assay: Differentiation inducing action on HL-60 cells (NBT-reducing ability)
Format: cell-based
Conditions: HL-60 cells cultured four days, NBT-reduced stained positive cells

Compound: CC12CCCc3cc(C(=O)Nc4ccc(C(=O)O)c(O)c4)cc(c31)CCC2 [Example 18, 2-Hydroxy-4-[(6a-methyl-5,6,6a,7,8,9-hexahydro-4H-2-phenalenyl)carboxamido]benzoic acid]
- Differentiation induction ratio (%) (1 × 10^−6 M test compound): 30.6%
- Differentiation induction ratio (%) (1 × 10^−7 M test compound): 32.1%
- Differentiation induction ratio (%) (1 × 10^−8 M test compound): 16.6%

Compound: O=C(Nc1ccc(C(=O)O)c(Cl)c1)c1cc2c3c(c1)CCCC3CCC2 [Example 4, 2-Chloro-4-[(5,6,6a,7,8,9-hexahydro-4H-2-phenalenyl)carboxamido]benzoic acid]
- Differentiation induction ratio (%) (1 × 10^−6 M test compound): 47.8%
- Differentiation induction ratio (%) (1 × 10^−7 M test compound): 36.7%
- Differentiation induction ratio (%) (1 × 10^−8 M test compound): 16.3%

Compound: O=C(O)c1ccc(NC(=O)c2cc3c4c(c2)CCCC4CCC3)cc1 [Example 2, 4-[(5,6,6a,7,8,9-Hexahydro-4H-2-phenalenyl)carboxamido]benzoic acid]
- Differentiation induction ratio (%) (1 × 10^−7 M test compound): 37.5%
- Differentiation induction ratio (%) (1 × 10^−8 M test compound): 26.7%
- Differentiation induction ratio (%) (1 × 10^−9 M test compound): 9.5%

Compound: CC12CCCc3cc(C(=O)Nc4ccc(C(=O)O)c(Cl)c4)cc(c31)CCC2 [Example 17, 2-Chloro-4-[(6a-methyl-5,6,6a,7,8,9-hexahydro-4H-2-phenalenyl)carboxamido]benzoic acid]
- Differentiation induction ratio (%) (1 × 10^−6 M test compound): 24.4%
- Differentiation induction ratio (%) (1 × 10^−7 M test compound): 21.4%
- Differentiation induction ratio (%) (1 × 10^−8 M test compound): 19%

Compound: O=C(O)c1ccc(NC(=O)c2cc3c4c(c2)CCCC4CCC3)nc1 [Example 8, 6-[(5,6,6a,7,8,9-Hexahydro-4H-2-phenalenyl)carboxamido]nicotinic acid]
- Differentiation induction ratio (%) (1 × 10^−6 M test compound): 68.9%
- Differentiation induction ratio (%) (1 × 10^−7 M test compound): 59.2%
- Differentiation induction ratio (%) (1 × 10^−8 M test compound): 53.5%

Compound: O=C(O)c1ccc(C(=O)Nc2cc3c4c(c2)CCCCC4CCCC3)cc1 [Example 27, 4-[(5,6,7,7a,8,9,10,11-Octahydro-4H-2-benzo[ef]heptalenyl)carbamoyl]benzoic acid]
- Differentiation induction ratio (%) (1 × 10^−7 M test compound): 52.8%
- Differentiation induction ratio (%) (1 × 10^−8 M test compound): 12.8%
- Differentiation induction ratio (%) (1 × 10^−9 M test compound): 4.6%

Compound: CC12CCCc3cc(C(=O)Nc4ccc(C(=O)O)cc4)cc(c31)CCC2 [Example 15, 4-[(6a-Methyl-5,6,6a,7,8,9-hexahydro-4H-2-phenalenyl)carboxamido]benzoic acid]
- Differentiation induction ratio (%) (1 × 10^−8 M test compound): 30.9%
- Differentiation induction ratio (%) (1 × 10^−9 M test compound): 14.9%

Compound: O=C(Nc1ccc(C(=O)O)c(F)c1)c1cc2c3c(c1)CCCC3CCC2 [Example 3, 2-Fluoro-4-[(5,6,6a,7,8,9-hexahydro-4H-2-phenalenyl)carboxamido]benzoic acid]
- Differentiation induction ratio (%) (1 × 10^−6 M test compound): 65.6%
- Differentiation induction ratio (%) (1 × 10^−7 M test compound): 60.1%
- Differentiation induction ratio (%) (1 × 10^−8 M test compound): 48.5%

Compound: CC12CCCc3cc(C(=O)Nc4ccc(C(=O)O)cn4)cc(c31)CCC2 [Example 21, 6-[(6a-Methyl-5,6,6a,7,8,9-hexahydro-4H-2-phenalenyl)carboxamido]nicotinic acid]
- Differentiation induction ratio (%) (1 × 10^−6 M test compound): 62.1%
- Differentiation induction ratio (%) (1 × 10^−7 M test compound): 60.5%
- Differentiation induction ratio (%) (1 × 10^−8 M test compound): 41.4%

Compound: O=C(O)c1ccc(NC(=O)c2cc3c4c(c2)CCCCC4CCCC3)cc1 [Example 28, 4-[(5,6,7,7a,8,9,10,11-Octahydro-4H-2-benzo[ef]heptalenyl)carboxamido]benzoic acid]
- Differentiation induction ratio (%) (1 × 10^−7 M test compound): 52.7%
- Differentiation induction ratio (%) (1 × 10^−8 M test compound): 55.5%
- Differentiation induction ratio (%) (1 × 10^−9 M test compound): 22.7%

Compound: CC12CCCc3cc(C(=O)Nc4ccc(C(=O)O)c(F)c4)cc(c31)CCC2 [Example 16, 2-Fluoro-4-[(6a-methyl-5,6,6a,7,8,9-hexahydro-4H-2-phenalenyl)carboxamido]benzoic acid]
- Differentiation induction ratio (%) (1 × 10^−6 M test compound): 33.8%
- Differentiation induction ratio (%) (1 × 10^−7 M test compound): 29.2%
- Differentiation induction ratio (%) (1 × 10^−8 M test compound): 18.4%

Compound: O=C(O)c1ccc(C(=O)Nc2cc3c4c(c2)CCCC4CCC3)nc1 [Example 7, 6-[(5,6,6a,7,8,9-Hexahydro-4H-2-phenalenyl)carbamoyl]nicotinic acid]
- Differentiation induction ratio (%) (1 × 10^−6 M test compound): 40.2%
- Differentiation induction ratio (%) (1 × 10^−7 M test compound): 4.5%
- Differentiation induction ratio (%) (1 × 10^−8 M test compound): 2.1%

Compound: CC12CCCc3cc(NC(=O)c4ccc(C(=O)O)cn4)cc(c31)CCC2 [Example 20, 6-[(6a-Methyl-5,6,6a,7,8,9-hexahydro-4H-2-phenalenyl)carbamoyl]nicotinic acid]
- Differentiation induction ratio (%) (1 × 10^−6 M test compound): 26.4%
- Differentiation induction ratio (%) (1 × 10^−7 M test compound): 15.9%
- Differentiation induction ratio (%) (1 × 10^−8 M test compound): 5.3%

Compound: O=C(Nc1ccc(C(=O)O)c(O)c1)c1cc2c3c(c1)CCCC3CCC2 [Example 5, 2-Hydroxy-4-[(5,6,6a,7,8,9-hexahydro-4H-2-phenalenyl)carboxamido]benzoic acid]
- Differentiation induction ratio (%) (1 × 10^−6 M test compound): 50.4%
- Differentiation induction ratio (%) (1 × 10^−7 M test compound): 41.8%
- Differentiation induction ratio (%) (1 × 10^−8 M test compound): 23.6%

Compound: O=C(O)c1ccc(C(=O)Nc2cc3c4c(c2)CCCC4CCC3)cc1 [Example 1, 4-[(5,6,6a,7,8,9-Hexahydro-4H-2-phenalenyl)carbamoyl]benzoic acid]
- Differentiation induction ratio (%) (1 × 10^−7 M test compound): 18.3%
- Differentiation induction ratio (%) (1 × 10^−8 M test compound): 6.6%
- Differentiation induction ratio (%) (1 × 10^−9 M test compound): 5.0%
